Test results taken from paper PMC4336329 (PLoS ONE, 2015).
In all, about 310,000 compounds went through this assay and about 14,000 (4.5%) showed an effect of 50% or more. Effects have a minus sign here. The list shows a part of the results.

Each compound was assayed against human ether-à-go-go-related gene (hERG) potassium channel (human, UniProt Q12809) (assay: primary screen, population patch clamp on CHO cells stably expressing hERG).
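Also: peak tail current of the secondary pulse compared with the same well before compound.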

Chain of human ether-à-go-go-related gene (hERG) potassium channel (Q12809 whole entry, looked up): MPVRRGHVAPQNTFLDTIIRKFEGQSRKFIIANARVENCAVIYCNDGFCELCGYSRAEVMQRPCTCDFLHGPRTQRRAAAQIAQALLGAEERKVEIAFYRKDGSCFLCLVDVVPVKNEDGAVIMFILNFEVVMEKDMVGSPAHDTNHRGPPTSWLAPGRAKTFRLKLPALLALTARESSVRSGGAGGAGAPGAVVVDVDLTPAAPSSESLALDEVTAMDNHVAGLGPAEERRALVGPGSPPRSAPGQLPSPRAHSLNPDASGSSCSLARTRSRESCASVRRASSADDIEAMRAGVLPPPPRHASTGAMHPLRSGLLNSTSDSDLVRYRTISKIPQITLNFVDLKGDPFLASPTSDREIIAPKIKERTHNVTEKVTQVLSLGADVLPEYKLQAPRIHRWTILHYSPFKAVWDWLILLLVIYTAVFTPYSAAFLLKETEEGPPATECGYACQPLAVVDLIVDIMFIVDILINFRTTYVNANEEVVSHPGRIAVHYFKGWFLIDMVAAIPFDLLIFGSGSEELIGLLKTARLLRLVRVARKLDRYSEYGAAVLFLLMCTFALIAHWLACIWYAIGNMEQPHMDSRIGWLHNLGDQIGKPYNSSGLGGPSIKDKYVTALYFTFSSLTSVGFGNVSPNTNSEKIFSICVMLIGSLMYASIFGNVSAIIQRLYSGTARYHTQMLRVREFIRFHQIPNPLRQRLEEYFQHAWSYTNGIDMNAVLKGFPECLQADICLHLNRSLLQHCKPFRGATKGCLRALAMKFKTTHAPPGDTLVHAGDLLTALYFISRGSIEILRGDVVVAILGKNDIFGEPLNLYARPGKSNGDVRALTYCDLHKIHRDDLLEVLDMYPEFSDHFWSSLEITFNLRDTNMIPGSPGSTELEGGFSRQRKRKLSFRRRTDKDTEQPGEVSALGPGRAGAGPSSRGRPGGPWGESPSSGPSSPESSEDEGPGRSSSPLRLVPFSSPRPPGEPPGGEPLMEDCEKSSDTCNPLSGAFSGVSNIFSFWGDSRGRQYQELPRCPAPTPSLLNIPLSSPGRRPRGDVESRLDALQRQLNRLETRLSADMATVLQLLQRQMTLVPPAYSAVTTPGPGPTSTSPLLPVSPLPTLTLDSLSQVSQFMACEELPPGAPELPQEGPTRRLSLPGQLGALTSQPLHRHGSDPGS

| SMILES | hERG current change (%, negative = inhibition) at 10uM |
| --- | --- |
| CCOCc1nnc(NC(=O)c2cc(Cl)ccc2OC)s1 | -17% |
| O=C(NCCc1cccc(Cl)c1)c1cccnc1 | -9.46% |
| COc1ccccc1CNC(=O)COc1ccccc1OC | 0.00358% |
| Cc1nc2c(c(C)nn2-c2ccccc2)c(C)c1Cl | -9.16% |
| Cc1oc2c(C)c(O)ccc2c(=O)c1-c1nncn1-c1ccccc1 | 15.3% |
| Cc1ccc(C(NC(=O)NCCCN2CCOCC2)=C(Cl)Cl)cc1F | -11% |
| O=C1Nc2ccccc2C12OCC1(CO2)COC2(OC1)C(=O)Nc1ccccc12 (centres unmarked) | 8.14% |
| CC(C)(CO)Nc1nc(Cl)nc(NC2CCCCC2)n1 | -17.6% |
| Cc1cccc(-n2ncc3c2CCCC3NC(=O)CC(F)(F)F)c1C (centres unmarked) | 0.868% |
| Cc1c(C(=O)C(=O)N2CCN(Cc3ccc4c(c3)OCO4)CC2)c2ccccc2n1C | -8.7% |
| C=CCN1C(=O)CSc2ccc(C(=O)NCc3ccco3)cc21 | -14.5% |
| O=C(CSc1nnc2c(n1)[nH]c1ccccc12)NCc1ccco1 | 15.9% |
| S=C(NCCc1ccncc1)Nc1ccccc1 | 18.6% |
| CC(=O)Nc1ccc2c(c1)nc1n2CCOC1 | 5.37% |
| CCc1nnc2c(N(C)C)nc3ccccc3n12 | -13.9% |
| O=C(COc1ccc(Nc2ccccc2)cc1)Nc1ccncc1 | -30.1% |
| O=[N+]([O-])c1ccc(N2CCCCCC2)c([N+](=O)[O-])c1 | 3.24% |
| O=C(Nc1ccc(Cl)c(Cl)c1)C1C2C=CC3(O2)C1C(=O)N(CCN1CCCCC1)C3C(=O)NC1CCCCC1 (centres unmarked) | -60.8% |
| CN1CCN(/C=N/c2c(C#N)cnn2C)CC1 | 9.06% |

| SMILES | hERG current change (%, negative = inhibition) at 10uM |
| --- | --- |
| CCC(Oc1cccc(Cl)c1)C(=O)N1CCCN(C)CC1 (centres unmarked) | 0.544% |
| COc1cccc(-c2cc(C(=O)NCCCn3ccnc3)c3ccccc3n2)c1 | -71.8% |
| Cc1ccc(CNC(=O)CS(=O)(=O)c2cn(CC(=O)N3CCOCC3)c3ccccc23)cc1 | 3% |
| COc1ccc(S(=O)(=O)Nc2ccc3c(c2)n(C)c(=O)n3C)cc1OC | 12.1% |
| CC(C(=O)Nc1ccc(F)c(F)c1F)N(C)CC(=O)Nc1ccccc1Br (centres unmarked) | -20% |
| COc1cc(C2SCC(=O)Nc3c2c(C)nn3-c2ccccc2)cc(OC)c1OC (centres unmarked) | -2.14% |
| Cc1cc(NS(=O)(=O)c2ccc(OCCNS(C)(=O)=O)cc2)no1 | 6.4% |
| COc1ccc(OCC(=O)N/N=C(\C)c2cc3ccccc3o2)cc1 | -34.5% |
| Cn1c(CNC(=O)c2ccccc2F)nnc1SCC(=O)N1CCN(c2ccccc2)CC1 | -8.2% |
| Cc1ccc(N(C(=O)Cn2nnc(-c3cccs3)n2)C(C(=O)NC2CCCC2)c2ccncc2)cc1 (centres unmarked) | 7.48% |
| Cc1ccc(C)c(N(C(=O)CS(=O)CC(=O)Nc2ccc3c(c2)OCO3)C(C)C(=O)NC2CCCC2)c1 (centres unmarked) | -17.5% |
| O=C(N/N=C/c1cccnc1)C1CCCN(S(=O)(=O)c2ccccc2)C1 (centres unmarked) | -36.1% |
| Cc1c(C(=O)O)sc2nc(/C=C/c3cccc(F)c3)[nH]c(=O)c12 | 14.2% |
| CC1(C)CC(=O)c2cc(C(=O)N3CCN(CCO)CC3)c(=O)n(-c3ccc(Cl)cc3)c2C1 | -0.258% |
| Cc1cc(=O)n(C)c(=O)n1CCCNc1ccccc1.O=C(O)C(=O)O | -4.01% |
| CC(C)Oc1ccc(C2CC(=O)N(c3cccc(Br)c3)C2=O)cc1 (centres unmarked) | 16.5% |
| CCOC(=O)COc1ccc2c(=O)c(-c3ccccc3OC)coc2c1 | 5.1% |
| COc1ccc(Cl)cc1C(=O)Nc1ccc(S(=O)(=O)N2CCCC2)cc1 | 27.6% |
| COc1ccc(C(=O)C[n+]2ccc(N)c(C)c2C)cc1.[Br-] | 14.9% |

| SMILES | hERG current change (%, negative = inhibition) at 10uM |
| --- | --- |
| Cc1ccccc1-c1nc(CN2CCC(C(=O)NC3CC3)CC2)c(C)o1 | -33% |
| Cc1ccc(S(=O)(=O)N(c2nc(N(C)C)nc(N(C)C)n2)n2cnnc2)cc1 | 20.4% |
| COc1cc(CCCN2C(=O)C(=O)NC[C@H]2Cc2cccc3ccccc23)cc(OC)c1OC | -19.6% |
| O=C(Nc1ccccc1Cl)NC1(C(=O)NCC2CCCO2)CCCCC1 (centres unmarked) | 18.8% |
| O=C1/C(=C\c2ccc(-c3ccccc3[N+](=O)[O-])o2)C(c2ccccc2)=NN1c1ccccc1 | 6.53% |
| CCOc1ccc(S(=O)(=O)n2ccc(C)n2)cc1 | 10.9% |
| Cc1oc2c(c(=O)c1C)C(=O)CC(c1ccccc1)C2 (centres unmarked) | -23.7% |
| CCCCN1CNC(=S)N(c2ccccc2OCC)C1 | 8.18% |
| CC(C)CC1NC(=O)N(CCCCN2C(=O)c3ccccc3C2=O)C1=O (centres unmarked) | -2.07% |
| COC(=O)C(Sc1nc(C)cc(C)c1C#N)c1ccccc1 (centres unmarked) | -10.6% |
| CCN1CCN(C(=O)CS(=O)(=O)Cc2nc(-c3ccccc3C)oc2C)CC1 | -0.141% |
| COc1cc(/C=N/NC(=O)C(NC(=O)c2ccccc2)c2n[nH]c(=O)c3ccccc23)ccc1OCC(N)=O (centres unmarked) | 5.88% |
| COc1ccccc1-n1cnnc1SCc1csc(-c2ccccc2)n1 | -20.9% |
| Cc1cccc(C)c1OCC(=O)Nn1c(C)nc2ccccc2c1=O | -25% |
| O=C(/C=C/c1ccccc1)NC(=S)Nc1ccc(CN2CCOCC2)cc1 | -18.9% |
| COCCCN1CN(S(=O)(=O)c2cccs2)c2nc3ccccc3nc21 | -23.7% |
| Cc1cccc2sc(NC(=O)CN(C)S(=O)(=O)c3ccc(Br)s3)nc12 | -2.49% |
| O=C(Nc1ccc(NC(=O)c2ccccc2Cl)nc1)c1ccncc1 | -10.3% |
